According to the supplement of paper PMC4967469:

Assays:
Experiment in all cases: Viability of human cancer cell lines after 72 h of drug (GDSC screen)
Tamoxifen = compound: CC/C(=C(\c1ccccc1)c1ccc(OCCN(C)C)cc1)c1ccccc1 [Tamoxifen]; conditions: top dose 5 µM
Experimental: (§1)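 Human cancer cell lines in 384-well plates, medium with 10% serum, drug for 72 h over a 256-fold dose range (nine 2-fold or five 4-fold steps up to the top dose). Adherent lines were fixed and stained with the nucleic acid dye Syto60, suspension lines read with resazurin; signal relative to control wells, capped at 0 and 100%. One two-parameter sigmoid per drug and line, fitted in a mixed model over all curves with the slope shared within a line.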

VNLG/124 = compound: CCCC(=O)OCc1ccc(OC(=O)/C=C(C)/C=C/C=C(C)/C=C/C2=C(C)CCCC2(C)C)cc1 [VNLG/124]; conditions: top dose 5.12 µM; top dose inferred
Experimental: as §1

Elesclomol = compound: CN(NC(=O)CC(=O)NN(C)C(=S)c1ccccc1)C(=S)c1ccccc1 [Elesclomol]; conditions: top dose 0.2 µM; top dose inferred
Experimental: as §1

HG-5-88-01 = compound: COc1cc(N2CCC(C(N)=O)CC2)ccc1Nc1nc(N)c(Cl)c(Nc2ccccc2S(=O)(=O)C(C)C)n1 [HG-5-88-01]; conditions: top dose 10 µM; top dose inferred
Experimental: as §1

Bleomycin = compound: Cc1c(N)nc([C@H](CC(N)=O)NC[C@H](N)C(N)=O)nc1C(=O)N[C@H](C(=O)N[C@H](C)[C@@H](O)[C@H](C)C(=O)N[C@H](C(=O)NCCc1nc(-c2nc(C(=O)NCCC[S+](C)C)cs2)cs1)[C@@H](C)O)[C@@H](OC1OC(CO)C(O)C(O)C1OC1OC(CO)C(O)C(OC(N)=O)C1O)c1cnc[nH]1 [Bleomycin]
Experimental: as §1

Masitinib = compound: Cc1ccc(NC(=O)c2ccc(CN3CCN(C)CC3)cc2)cc1Nc1nc(-c2cccnc2)cs1 [Masitinib]; conditions: top dose 20 µM
Experimental: as §1

LAQ824 = compound: O=C(/C=C/c1ccc(CN(CCO)CCc2c[nH]c3ccccc23)cc1)NO [LAQ824]; conditions: top dose 1.024 µM; top dose inferred
Experimental: as §1

OSI-930 = compound: O=C(Nc1ccc(OC(F)(F)F)cc1)c1sccc1NCc1ccnc2ccccc12 [OSI-930]; conditions: top dose 10.24 µM
Experimental: as §1

BX-912 = compound: O=C(Nc1cccc(Nc2ncc(Br)c(NCCc3cnc[nH]3)n2)c1)N1CCCC1 [BX-912]; conditions: top dose 10.24 µM; top dose inferred
Experimental: as §1

NSC-87877 = compound: O=S(=O)(O)c1ccc2cc(N=Nc3cc(S(=O)(=O)O)c4cccnc4c3O)ccc2c1 [NSC-87877]; conditions: top dose 16 µM; top dose inferred
Experimental: as §1

[1] = top dose 50 µM, screen: GDSC drug entry 1378, top dose inferred
[2] = top dose 64 µM, screen: GDSC drug entry 190

| Cell Line | AUC (Tamoxifen) | IC50 (Tamoxifen) | AUC (VNLG/124) | IC50 (VNLG/124) | AUC (Elesclomol) | IC50 (Elesclomol) | AUC (HG-5-88-01) | IC50 (HG-5-88-01) | AUC (Bleomycin; [1]) | IC50 (Bleomycin; [1]) | AUC (Bleomycin; [2]) | IC50 (Bleomycin; [2]) | AUC (Masitinib) | IC50 (Masitinib) | AUC (LAQ824) | IC50 (LAQ824) | AUC (OSI-930) | IC50 (OSI-930) | AUC (BX-912) | IC50 (BX-912) | AUC (NSC-87877) | IC50 (NSC-87877) |
| --- | --- | --- | --- | --- | --- | --- | --- | --- | --- | --- | --- | --- | --- | --- | --- | --- | --- | --- | --- | --- | --- | --- |
| DBTRG-05MG (glioma, adherent) | 0.982 | > 5 µM | 0.984 | > 5.12 µM | 0.575 | 0.0208 µM | 0.868 | > 10 µM | 0.558 | 4.62 µM | 0.554 | 5.76 µM | 0.901 | > 20 µM | 0.591 | 0.118 µM | 0.962 | > 10.2 µM | 0.936 | > 10.2 µM | 0.976 | > 16 µM |
| DG-75 (Burkitt lymphoma, suspension) | 0.94 | > 5 µM | 0.986 | > 5.12 µM | 0.593 | 0.0226 µM | 0.957 | > 10 µM | 0.89 | > 50 µM | 0.725 | 17.6 µM | 0.868 | 18.7 µM | 0.742 | 0.319 µM | 0.966 | > 10.2 µM | 0.918 | > 10.2 µM | 0.982 | > 16 µM |
| DMS-53 (small cell lung carcinoma, adherent) | 0.983 | > 5 µM | 0.983 | > 5.12 µM | 0.98 | > 0.2 µM | 0.981 | > 10 µM | 0.845 | 40.1 µM | 0.916 | > 64 µM | 0.959 | > 20 µM | 0.766 | 0.403 µM | 0.925 | > 10.2 µM | 0.988 | > 10.2 µM | 0.988 | > 16 µM |
| DMS-114 (small cell lung carcinoma, adherent) | 0.982 | > 5 µM | 0.983 | > 5.12 µM | 0.483 | 0.0111 µM | 0.944 | > 10 µM | 0.371 | 1.3 µM | 0.589 | 7.28 µM | 0.906 | > 20 µM | 0.821 | 0.715 µM | 0.972 | > 10.2 µM | 0.892 | > 10.2 µM | 0.985 | > 16 µM |
| DMS-273 (small cell lung carcinoma, adherent) | 0.983 | > 5 µM | 0.985 | > 5.12 µM | 0.445 | 0.00877 µM | 0.983 | > 10 µM | 0.586 | 5.45 µM | 0.494 | 3.85 µM | 0.701 | 4.76 µM | 0.451 | 0.0466 µM | 0.965 | > 10.2 µM | 0.94 | > 10.2 µM | 0.985 | > 16 µM |
| DND-41 (T-cell leukaemia, suspension) | 0.903 | > 5 µM | 0.983 | > 5.12 µM | 0.58 | 0.0201 µM | 0.975 | > 10 µM | 0.117 | 0.23 µM | 0.08 | < 0.25 µM | 0.592 | 2.16 µM | 0.246 | 0.0133 µM | 0.946 | > 10.2 µM | 0.447 | 0.466 µM | 0.982 | > 16 µM |
| DOK (head and neck, adherent) | 0.971 | > 5 µM | 0.966 | > 5.12 µM | 0.566 | 0.0208 µM | 0.66 | 2.18 µM | 0.596 | 6.53 µM | 0.917 | > 64 µM | 0.958 | > 20 µM | 0.678 | 0.26 µM | 0.975 | > 10.2 µM | 0.933 | > 10.2 µM | 0.973 | > 16 µM |
| Daudi (Burkitt lymphoma, suspension) | 0.97 | > 5 µM | 0.99 | > 5.12 µM | 0.977 | > 0.2 µM | 0.914 | > 10 µM | 0.792 | 19.5 µM | 0.369 | 1.84 µM | 0.815 | 9.26 µM | 0.388 | 0.0328 µM | 0.815 | 4.73 µM | 0.643 | 1.51 µM | 0.986 | > 16 µM |
| DoTc2-4510 (cervix, adherent) | 0.987 | > 5 µM | 0.988 | > 5.12 µM | 0.981 | > 0.2 µM | 0.969 | > 10 µM | 0.889 | > 50 µM | 0.184 | 0.484 µM | 0.958 | > 20 µM | 0.316 | 0.0202 µM | 0.972 | > 10.2 µM | 0.956 | > 10.2 µM | 0.982 | > 16 µM |
| EC-GI-10 (oesophagus, adherent) | 0.941 | > 5 µM | 0.986 | > 5.12 µM | 0.709 | 0.0484 µM | 0.968 | > 10 µM | 0.518 | 3.49 µM | 0.911 | > 64 µM | 0.989 | > 20 µM | 0.812 | 0.542 µM | 0.979 | > 10.2 µM | 0.989 | > 10.2 µM | 0.988 | > 16 µM |
| EFM-192A (breast, adherent) | 0.961 | > 5 µM | 0.973 | > 5.12 µM | 0.906 | > 0.2 µM | 0.984 | > 10 µM | 0.982 | > 50 µM | 0.107 | < 0.25 µM | 0.981 | > 20 µM | 0.391 | 0.031 µM | 0.974 | > 10.2 µM | 0.958 | > 10.2 µM | 0.985 | > 16 µM |
| EKVX (lung adenocarcinoma, adherent) | 0.896 | > 5 µM | 0.948 | > 5.12 µM | 0.639 | 0.0473 µM | 0.84 | > 10 µM | 0.833 | > 50 µM | 0.799 | > 64 µM | 0.967 | > 20 µM | 0.746 | 0.765 µM | 0.956 | > 10.2 µM | 0.961 | > 10.2 µM | 0.97 | > 16 µM |

A lower IC50 marks a more sensitive line; a limit (>, <) means that the fit lies beyond the doses tested. AUC, from the same fit, is the share of area under the viability curve across the 256-fold dose range; values near 1 show little effect. For part of these data: Where the top dose is marked as inferred, it was derived from the fitted curves, not read from the paper. For part of these data: Drugs with an entry number were screened twice under separate entries, and the two screens often disagree.
